PubChem BioAssay AID485367 (National Center for Advancing Translational Sciences (NCATS), 2010)
About 560 (0.17%) of roughly 330,000 compounds were called active. The shares of active, inactive and inconclusive entries below differ from those in the screen. Calls come from the whole dose curve; as a rule, active = well fitted inhibition curve with a large enough effect; inconclusive = small, poorly fitted or top-dose-only effect, or effect the other way; inactive = flat fitted curve, though single readings scatter. No potency is given beside an inconclusive call; the fits are too rough.
Note: nearly all actives have a fitted effect of over 60% in size.
Potency is the fitted concentration of half-maximal effect; tags give direction and shape of the fitted curve.
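Throughout, for activity, negative = inhibition: 0% = uninhibited 1x PFK enzyme wells and -100% = no-enzyme wells.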

Each molecule was assayed against ATP-dependent 6-phosphofructokinase (Trypanosoma brucei brucei) (UniProt O15648) (assay: qHTS Assay to Find Inhibitors of T. brucei phosphofructokinase). Conditions: T. brucei PFK, ADP-Glo luminescence; activity, negative = inhibition: at 57.5 µM (top of the series).
UniProt O15648, sequence (O15648 whole entry, looked up): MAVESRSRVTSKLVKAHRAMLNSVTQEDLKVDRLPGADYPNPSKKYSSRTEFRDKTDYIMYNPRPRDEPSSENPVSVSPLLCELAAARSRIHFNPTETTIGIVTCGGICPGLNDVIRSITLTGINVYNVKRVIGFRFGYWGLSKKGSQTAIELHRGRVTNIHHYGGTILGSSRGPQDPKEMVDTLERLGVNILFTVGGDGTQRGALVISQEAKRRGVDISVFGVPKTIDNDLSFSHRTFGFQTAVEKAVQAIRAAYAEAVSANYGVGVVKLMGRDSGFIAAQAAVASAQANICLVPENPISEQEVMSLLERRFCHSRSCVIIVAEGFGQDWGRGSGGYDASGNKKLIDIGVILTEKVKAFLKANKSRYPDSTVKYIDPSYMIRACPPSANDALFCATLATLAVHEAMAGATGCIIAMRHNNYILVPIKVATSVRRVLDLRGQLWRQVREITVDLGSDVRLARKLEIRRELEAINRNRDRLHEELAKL
Summary of the method: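 PFK 1.25 nM, F6P 0.5 mM, ATP 0.1 mM, 0.1 M TEA pH 8.0, 5 mM MgCl2, 0.01% Tween20, 0.1% BSA; 45 min RT. ADP-Glo readout. qHTS titration up to 57 uM; curves fitted, compounds curve-classed.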
With `CC(=O)N(C1=C(Cl)C(=O)c2ccccc2C1=O)C1CCCCC1` the Potency was active: 0.675 µM.
With `O=C(Nc1cccnc1)C1CC(c2ccccc2O)=NO1` (stereo not given) the Potency was inconclusive [falling, single point].
`CC1=CC(C)C(C[N+]2(C)CCCCC2)C(C)C1` (stereo not given) was tested, and the “activity, negative = inhibition” value was inactive: -5.79%.
With `C=C(C)CNC(=S)N/N=C(\C)c1ccc(-n2ccnc2)cc1` the Potency was inconclusive [falling, single point].
For `CN1CCN(c2cc(N3CCN(C(=O)c4ccco4)CC3)c3c4c(onc24)-c2ccccc2C3=O)CC1`, the “activity, negative = inhibition” value was inactive: 0.265%.
In the case of `COc1cc(/C=C(\C#N)C(=O)c2ccc(O)c(O)c2)cc(I)c1O`, the Potency is reported as active: 1.69 µM.
With `O=C(COc1ccc(Cl)cc1Cl)N/N=C/c1ccc[nH]1` the Potency was inconclusive [falling, partial curve].
In the case of `O=C(O)CCNc1cc(N2CCN(C(=O)c3ccco3)CC2)c2noc3c2c1C(=O)c1ccccc1-3`, the Potency is reported as inconclusive [falling, single point].
In the case of `COc1ccc(C(=O)COC(=O)c2cc(C)no2)c(OC)c1`, the Potency is reported as inconclusive [falling, partial curve].
With `CC(NC(=O)C1CCN(S(=O)(=O)c2cccs2)CC1)c1cccc(Cl)c1` (stereo not given) the “activity, negative = inhibition” value was inactive: -2.24%.
For `C[C@@H]1CN([C@@H](C)CO)C(=O)c2cc(NC(=O)C3CC3)ccc2O[C@@H]1CN(C)C(=O)NC1CCCCC1`, the “activity, negative = inhibition” value was inactive: 2%.
`CC(C)n1cc(/C=C/c2cc[n+](C)cc2)c2ccccc21` was tested, and the “activity, negative = inhibition” value was inactive: -5.87%.
In the case of `CC(C)C[C@@H]1NC(=O)[C@H](Cc2ccccc2)N(C)C(=O)[C@H](C)NC(=O)c2ccccc2NC(=O)[C@H](Cc2ccc(O)cc2)N(C)C1=O`, the “activity, negative = inhibition” value is reported as inactive: 0.779%.
In the case of `CC1=CC(=O)c2c(O)ccc(O)c2C1=O`, the Potency is reported as inconclusive [falling, single point].
`O=C(/C=C/Nc1ccc(F)c(Cl)c1)c1ccccc1` was tested, and the Potency was inconclusive [falling, partial curve, poor fit].
With `O=C(COC(=O)c1cccc([N+](=O)[O-])c1)NCC1CCCO1` (stereo not given) the “activity, negative = inhibition” value was inactive: 5.11%.
`Cc1ccc([N+](=O)[O-])cc1S(=O)(=O)Nc1ccc(C(=O)NCC2CCCO2)cc1` (stereo not given) was tested, and the Potency was inconclusive [falling, single point].
In the case of `O=C1CC(c2ccco2)CC(O)=C1C=Nc1cc(Cl)ccc1O` (stereo not given), the Potency is reported as inconclusive [falling, single point].
With `COCCN(C(=O)COC(=O)c1ccccc1Nc1ccccc1)c1c(N)n(Cc2ccccc2)c(=O)[nH]c1=O` the “activity, negative = inhibition” value was inactive: -2.59%.
With `Cc1ccc2cccc(S(=O)(=O)Nc3ccc4c(c3)OCO4)c2n1` the Potency was inconclusive [falling, single point].
In the case of `O=S(=O)(Nc1ccccc1)c1cccc2nsnc12`, the Potency is reported as inconclusive [falling, partial curve].
With `CCc1ccc(NC(=O)CSc2nc(NS(=O)(=O)c3ccccc3)cc(=O)[nH]2)cc1` the Potency was inconclusive [falling, single point].
For `C/C(=N\NC(=S)NCc1ccccc1)c1ccc(Cl)s1`, the “activity, negative = inhibition” value was inactive: 0.0409%.
With `O=S(=O)(c1ccc(NC(=S)NCc2ccc(F)cc2)cc1)N1CCOCC1` the Potency was active: 23.9 µM.
`CCOC(=O)c1sc(=S)n(-c2cc(OC)ccc2OC)c1N` was tested, and the Potency was inconclusive [falling, single point].
`CCOC(=O)C1CN(S(=O)(=O)c2ccc(OC)cc2)c2ccccc2O1` (stereo not given) was tested, and the “activity, negative = inhibition” value was inactive: -1.16%.
`Oc1c(N=NC(=S)Nc2ccccc2F)c2ccccc2n1Cc1ccccc1Cl` was tested, and the “activity, negative = inhibition” value was inactive: -2.45%.
For `COCc1cc(/C=N\NC(=O)Cc2ccc(Cl)cc2)ccc1OC`, the Potency was active: 21.3 µM.
`C=CC[n+]1c(/C=C/c2ccc(OC(C)=O)c(OC)c2)ccc2ccccc21` was tested, and the Potency was inconclusive [falling, partial curve].
With `Cc1ccc(C2C3=C(CC(C)(C)CC3=O)Nc3onc(C)c32)cc1` (stereo not given) the Potency was inconclusive [activator, single point].
`COC(=O)c1cc(Cl)c(NC(=O)/C=C/c2ccc(OC)c(OC)c2)cc1OC` was tested, and the “activity, negative = inhibition” value was inactive: 0.762%.
For `O=C(Nc1ccc2c(c1)OCO2)c1n[nH]c(=O)c2ccccc12`, the “activity, negative = inhibition” value was inactive: -0.657%.
In the case of `CC(=O)C1=C(O)C(=O)N(c2cccc(C(=O)O)c2)C1c1ccc(F)cc1` (stereo not given), the Potency is reported as inconclusive [activator, single point].
For `O=C(O)c1ccc(-n2cc(-c3cc4ccccc4oc3=O)[nH]c2=S)cc1`, the Potency was inconclusive [falling, partial curve].
With `COc1ccc(/C=C/C(=O)OCC(=O)Nc2ccc3[nH]c(=O)[nH]c3c2)cc1OC` the Potency was inconclusive [falling, single point].
With `O=C(NCc1cccc(Cl)c1)c1ccc2nc[nH]c2c1` the Potency was inconclusive [falling, partial curve].
`CCCn1c(N)c(C(=O)COc2ccc(Br)cc2F)c(=O)n(C)c1=O` was tested, and the Potency was inconclusive [falling, partial curve].
In the case of `O=C(CN1C(=O)/C(=C2/SC(=S)N(CCS(=O)(=O)O)C2=O)c2ccccc21)Nc1cccc(C(F)(F)F)c1`, the Potency is reported as inconclusive [falling, single point].
In the case of `O=C(O)CCCNc1ccc(S(=O)(=O)Nc2ccccc2C(=O)O)cc1C(=O)O`, the Potency is reported as inconclusive [activator, partial curve].
In the case of `CCOC(=O)C1=C(C)N(CCCC(=O)O)C(=O)NC1c1ccc([N+](=O)[O-])cc1` (stereo not given), the Potency is reported as inconclusive [falling, single point].
In the case of `Cc1c(Cl)cccc1NCC(=O)NN=C1CCCC1`, the Potency is reported as inconclusive [falling, single point].
For `O=C1/C(=C/c2ccco2)SC(=S)N1CC1CCCO1` (stereo not given), the Potency was inconclusive [falling, single point].
In the case of `Cc1cc(C)c(S(=O)(=O)NCC(c2ccco2)N2CCc3ccccc3C2)c(C)c1` (stereo not given), the Potency is reported as inconclusive [activator, full curve, poor fit].
With `S=c1[nH]nc(Nc2ccccc2Cl)s1` the Potency was inconclusive [falling, single point].
`C=CCN(CC(=O)Nc1cccnc1)S(=O)(=O)c1ccc(Cl)cc1` was tested, and the “activity, negative = inhibition” value was inactive: 0.451%.
